In the supplement of paper PMC8728848:
The other results are listed elsewhere or left out.

Legend:
Test in all cases: glycan array binding signal (z-score within array); higher = stronger binding
Conditions in all cases: glycan notation: IUPAC condensed, linker removed
[1] = target: Fuc(a1-2)[GalNAc(a1-3)]Gal(b1-3)GlcNAc(b1-2)Man(a1-3)[Fuc(a1-2)[GalNAc(a1-3)]Gal(b1-3)GlcNAc(b1-2)Man(a1-6)]Man(b1-4)GlcNAc(b1-4)[Fuc(a1-6)]GlcNAc
In short: (§1)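 Columns mapping to the same glycan were averaged after glycan names were converted to IUPAC-condensed notation. The data come from 3228 arrays in the Consortium for Functional Glycomics database, limited to those with an available protein sequence. Binding is reported as a within-array Z-score averaged across arrays of one protein sequence and across linkers.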

[2] = target: Fuc(a1-2)[GalNAc(a1-3)]Gal(b1-3)GlcNAc(b1-3)GalNAc
In short: as §1

[3] = target: Fuc(a1-2)[GalNAc(a1-3)]Gal(b1-3)GlcNAc(b1-6)GalNAc
In short: as §1

[4] = target: Fuc(a1-2)[GalNAc(a1-3)]Gal(b1-4)Glc
In short: as §1

[5] = target: Fuc(a1-2)[GalNAc(a1-3)]Gal(b1-4)GlcNAc
In short: as §1

[6] = target: Fuc(a1-2)[GalNAc(a1-3)]Gal(b1-4)GlcNAc(b1-2)Man
In short: as §1

[7] = target: Fuc(a1-2)[GalNAc(a1-3)]Gal(b1-4)GlcNAc(b1-2)Man(a1-3)[Fuc(a1-2)[GalNAc(a1-3)]Gal(b1-4)GlcNAc(b1-2)Man(a1-6)]Man(b1-4)GlcNAc(b1-4)GlcNAc
In short: as §1

[8] = target: Fuc(a1-2)[GalNAc(a1-3)]Gal(b1-4)GlcNAc(b1-2)Man(a1-3)[Fuc(a1-2)[GalNAc(a1-3)]Gal(b1-4)GlcNAc(b1-2)Man(a1-6)]Man(b1-4)GlcNAc(b1-4)[Fuc(a1-6)]GlcNAc
In short: as §1

[9] = target: Fuc(a1-2)[GalNAc(a1-3)]Gal(b1-4)GlcNAc(b1-3)Gal(b1-4)GlcNAc
In short: as §1

[10] = target: Fuc(a1-2)[GalNAc(a1-3)]Gal(b1-4)GlcNAc(b1-3)Gal(b1-4)GlcNAc(b1-3)Gal(b1-4)GlcNAc
In short: as §1

[11] = target: Fuc(a1-2)[GalNAc(a1-3)]Gal(b1-4)GlcNAc(b1-3)GalNAc
In short: as §1

[12] = target: Fuc(a1-2)[GalNAc(a1-3)]Gal(b1-4)GlcNAc(b1-3)[Fuc(a1-2)[GalNAc(a1-3)]Gal(b1-4)GlcNAc(b1-6)]GalNAc
In short: as §1

[13] = target: Fuc(a1-2)[GalNAc(a1-3)]Gal(b1-4)GlcNAc(b1-6)GalNAc
In short: as §1

[14] = target: Fuc(a1-2)[GalNAc(a1-3)]Gal(b1-4)[Fuc(a1-3)]GlcNAc
In short: as §1

[15] = target: Fuc(a1-2)[GalNAc(a1-3)]Gal(b1-4)[Fuc(a1-3)]GlcNAc(b1-3)GalNAc
In short: as §1

[16] = target: Fuc(a1-2)[GalNAc(a1-4)]Gal(b1-4)GlcNAc
In short: as §1

[17] = target: Fuc(a1-2)[GalNAc(b1-3)]Gal
In short: as §1

[18] = target: Fuc(a1-3)GlcNAc
In short: as §1

[19] = target: Fuc(a1-3)[Gal(b1-4)]Glc6S
In short: as §1

[20] = target: Fuc(a1-3)[Gal(b1-4)]GlcNAc
In short: as §1

[21] = target: Fuc(a1-3)[Gal(b1-4)]GlcNAc(b1-2)Man
In short: as §1

[22] = target: Fuc(a1-3)[Gal(b1-4)]GlcNAc(b1-2)Man(a1-3)[Fuc(a1-3)[Gal(b1-4)]GlcNAc(b1-2)Man(a1-6)]Man(b1-4)GlcNAc(b1-4)GlcNAc
In short: as §1

[23] = target: Fuc(a1-3)[Gal(b1-4)]GlcNAc(b1-2)Man(a1-3)[Fuc(a1-3)[Gal(b1-4)]GlcNAc(b1-2)Man(a1-6)]Man(b1-4)GlcNAc(b1-4)[Fuc(a1-6)]GlcNAc
In short: as §1

[24] = target: Fuc(a1-3)[Gal(b1-4)]GlcNAc(b1-3)Gal(b1-3)[Fuc(a1-4)]GlcNAc
In short: as §1

[25] = target: Fuc(a1-3)[Gal(b1-4)]GlcNAc(b1-3)Gal(b1-4)[Fuc(a1-3)]GlcNAc
In short: as §1

[26] = target: Fuc(a1-3)[Gal(b1-4)]GlcNAc(b1-3)Gal(b1-4)[Fuc(a1-3)]GlcNAc(b1-3)Gal(b1-4)[Fuc(a1-3)]GlcNAc
In short: as §1

[27] = target: Fuc(a1-3)[Gal(b1-4)]GlcNAc(b1-3)GalNAc
In short: as §1

[28] = target: Fuc(a1-3)[Gal(b1-4)]GlcNAc(b1-4)Gal(b1-4)[Fuc(a1-3)]GlcNAc
In short: as §1

[29] = target: Fuc(a1-3)[Gal(b1-4)]GlcNAc(b1-4)Gal(b1-4)[Fuc(a1-3)]GlcNAc(b1-4)Gal(b1-4)[Fuc(a1-3)]GlcNAc
In short: as §1

[30] = target: Fuc(a1-3)[Gal(b1-4)]GlcNAc(b1-6)GalNAc
In short: as §1

[31] = target: Fuc(a1-3)[Gal(b1-4)]GlcNAc(b1-6)[Gal(b1-3)GlcNAc(b1-3)]Gal(b1-4)Glc
In short: as §1

[32] = target: Fuc(a1-3)[Gal(b1-4)]GlcNAc6S
In short: as §1

[33] = target: Fuc(a1-3)[Gal3S(b1-4)]Glc
In short: as §1

[34] = target: Fuc(a1-3)[Gal3S(b1-4)]GlcNAc
In short: as §1

[35] = target: Fuc(a1-3)[Gal3S(b1-4)]GlcNAc6S
In short: as §1

[36] = target: Fuc(a1-3)[GalNAc(b1-4)]GlcNAc
In short: as §1

[37] = target: Fuc(a1-3)[GalNAc(b1-4)]GlcNAc6S
In short: as §1

[38] = target: Fuc(a1-4)GlcNAc
In short: as §1

[39] = target: Fuc(b1-3)GlcNAc
In short: as §1

[40] = target: Gal(a1-2)Gal
In short: as §1

[41] = target: Gal(a1-3)Gal
In short: as §1

[42] = target: Gal(a1-3)Gal(b1-3)GlcNAc
In short: as §1

[43] = target: Gal(a1-3)Gal(b1-3)GlcNAc(b1-2)Man
In short: as §1

[44] = target: Gal(a1-3)Gal(b1-3)GlcNAc(b1-2)Man(a1-3)[Gal(a1-3)Gal(b1-3)GlcNAc(b1-2)Man(a1-6)]Man(b1-4)GlcNAc(b1-4)GlcNAc
In short: as §1

[45] = target: Gal(a1-3)Gal(b1-3)GlcNAc(b1-3)GalNAc
In short: as §1

B1: WGA (Triticum vulgare) (protein)
chain: QRCGEQGSNMECPNNLCCSQYGYCGMGGDYCGKGCQNGACWTSKRCGSQAGGATCPNNHCCSQYGHCGFGAEYCGAGCQGGPCRADIKCGSQSGGKLCPNNLCCSQWGFCGLGSEFCGGGCQSGACSTDKPCGKDAGGRVCTNNYCCSKWGSCGIGPGYCGAGCQSGGCDAVFAGAITANSTLLAE
Question: With B1 as the binder, how does the “glycan array binding signal (z-score)” value [1] read?
Answer: -0.309

Question: What about the “glycan array binding signal (z-score)” value [2] of the same binder?
Answer: -0.299

Question: And the “glycan array binding signal (z-score)” value [3]?
Answer: -0.365

Question: What about the “glycan array binding signal (z-score)” value [4] of the same binder?
Answer: -0.357

Question: And the “glycan array binding signal (z-score)” value [5]?
Answer: 1.1

Question: What about the “glycan array binding signal (z-score)” value [6] of the same binder?
Answer: -0.347

Question: And the “glycan array binding signal (z-score)” value [7]?
Answer: 0.266

Question: What about the “glycan array binding signal (z-score)” value [8] of the same binder?
Answer: -0.283

Question: What about the “glycan array binding signal (z-score)” value [9] of the same binder?
Answer: 1.17

Question: And the “glycan array binding signal (z-score)” value [10]?
Answer: 0.902

Question: What about the “glycan array binding signal (z-score)” value [11] of the same binder?
Answer: -0.339

Question: What about the “glycan array binding signal (z-score)” value [12] of the same binder?
Answer: -0.231

Question: What about the “glycan array binding signal (z-score)” value [13] of the same binder?
Answer: 0.594

Question: And the “glycan array binding signal (z-score)” value [14]?
Answer: -0.26

Question: And the “glycan array binding signal (z-score)” value [15]?
Answer: -0.241

Question: And the “glycan array binding signal (z-score)” value [16]?
Answer: 3

Question: And the “glycan array binding signal (z-score)” value [17]?
Answer: -0.35

Question: And the “glycan array binding signal (z-score)” value [18]?
Answer: -0.36

Question: What about the “glycan array binding signal (z-score)” value [19] of the same binder?
Answer: -0.284

Question: What about the “glycan array binding signal (z-score)” value [20] of the same binder?
Answer: -0.351

Question: And the “glycan array binding signal (z-score)” value [21]?
Answer: -0.33

Question: And the “glycan array binding signal (z-score)” value [22]?
Answer: -0.289

Question: What about the “glycan array binding signal (z-score)” value [23] of the same binder?
Answer: -0.307

Question: And the “glycan array binding signal (z-score)” value [24]?
Answer: -0.332

Question: And the “glycan array binding signal (z-score)” value [25]?
Answer: -0.381

Question: What about the “glycan array binding signal (z-score)” value [26] of the same binder?
Answer: -0.408

Question: And the “glycan array binding signal (z-score)” value [27]?
Answer: -0.327

Question: And the “glycan array binding signal (z-score)” value [28]?
Answer: -0.237

Question: And the “glycan array binding signal (z-score)” value [29]?
Answer: -0.264

Question: And the “glycan array binding signal (z-score)” value [30]?
Answer: -0.307

Question: And the “glycan array binding signal (z-score)” value [31]?
Answer: -0.342

Question: What about the “glycan array binding signal (z-score)” value [32] of the same binder?
Answer: -0.307

Question: And the “glycan array binding signal (z-score)” value [33]?
Answer: -0.336

Question: What about the “glycan array binding signal (z-score)” value [34] of the same binder?
Answer: -0.497

Question: What about the “glycan array binding signal (z-score)” value [35] of the same binder?
Answer: -0.361

Question: And the “glycan array binding signal (z-score)” value [36]?
Answer: 1.39

Question: What about the “glycan array binding signal (z-score)” value [37] of the same binder?
Answer: -0.223

Question: What about the “glycan array binding signal (z-score)” value [38] of the same binder?
Answer: -0.38

Question: And the “glycan array binding signal (z-score)” value [39]?
Answer: -0.359

Question: What about the “glycan array binding signal (z-score)” value [40] of the same binder?
Answer: -0.365

Question: What about the “glycan array binding signal (z-score)” value [41] of the same binder?
Answer: -0.354

Question: And the “glycan array binding signal (z-score)” value [42]?
Answer: -0.352

Question: What about the “glycan array binding signal (z-score)” value [43] of the same binder?
Answer: -0.363

Question: What about the “glycan array binding signal (z-score)” value [44] of the same binder?
Answer: -0.217

Question: And the “glycan array binding signal (z-score)” value [45]?
Answer: -0.349
